Measurements reported in PubChem BioAssay AID624417 (National Center for Advancing Translational Sciences (NCATS), 2012).
Among all 410,000 compounds or so, about 6,400 (1.6%) were called active. The shares of active, inactive and inconclusive entries below differ from those in the screen. Calls follow the shape of the dose curve; as a rule, active = well fitted inhibition curve with a large enough effect; inconclusive = small, poorly fitted or top-dose-only effect; inactive = no such curve, though single readings can be large or run the other way. No potency is given beside an inconclusive call; the fits are too rough.

biological target: Glucagon-like peptide 1 receptor (Homo sapiens) (UniProt P43220); experiment: qHTS of GLP-1 Receptor Inverse Agonists (Inhibition Mode); conditions: HEK293 GLP-1R CRE-luciferase, luminescence, 24 h, GLP-1R form is constitutively active; series mostly up to 38.3 µM; also: nearly all actives have a fitted effect of over 55% in size
UniProt P43220, sequence (P43220 whole entry, looked up): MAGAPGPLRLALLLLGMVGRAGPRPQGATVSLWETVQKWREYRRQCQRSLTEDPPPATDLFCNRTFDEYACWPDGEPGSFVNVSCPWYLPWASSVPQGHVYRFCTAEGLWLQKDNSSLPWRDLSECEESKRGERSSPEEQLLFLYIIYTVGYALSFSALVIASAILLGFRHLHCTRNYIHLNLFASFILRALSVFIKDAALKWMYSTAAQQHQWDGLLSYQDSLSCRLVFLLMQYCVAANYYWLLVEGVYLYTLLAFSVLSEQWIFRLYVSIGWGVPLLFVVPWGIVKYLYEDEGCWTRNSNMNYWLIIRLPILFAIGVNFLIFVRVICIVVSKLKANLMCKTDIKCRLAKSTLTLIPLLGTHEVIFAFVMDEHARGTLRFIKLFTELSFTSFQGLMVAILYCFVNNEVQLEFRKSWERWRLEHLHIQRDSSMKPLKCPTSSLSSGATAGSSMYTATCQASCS
Procedure, shortened: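 GLP-1R inverse agonism mode: basal reporter luminescence in engineered HEK293 cells measured after one day of compound exposure at 37 deg C, with a 12 min room-temperature detection step.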
Potency is read from the fitted curve at half-maximal effect; tags tell the direction and shape of the fitted curve.

| SMILES | Potency |
| --- | --- |
| Cc1ccc(S(=O)(=O)N2CCN(c3nc(C)c4c(c3C#N)CC(C)(C)OC4)CC2)cc1 | inconclusive [inhibitor, single point] |
| COc1ccc(/C=C/C(=O)c2cc(F)ccc2OC(=O)c2ccc(OC)c(OC)c2)cc1OC | inconclusive [inhibitor, single point] |
| COc1ccc(-c2cc(C(=O)N3CCCc4ccccc43)no2)cc1 | inconclusive [inhibitor, single point] |
| COc1ccc2[nH]cc(CCn3ccc(O)c(C/C=C/c4ccccc4)c3=O)c2c1 | inconclusive [inhibitor, partial curve, poor fit] |
| O=C(NC1CCCC1)c1cc(-c2ccccc2O)on1 | inactive |
| CCCc1ccc(-c2ccc(/C=C/C(=O)O)cc2)nc1 | inconclusive [inhibitor, full curve, poor fit] |
| CCc1cccc2c(C(=O)C(NCCOC)c3ccccc3)c[nH]c12 (configuration not stated) | inconclusive [inhibitor, single point] |
| CCN1c2ccccc2-c2nc(SCC(=O)Nc3cc(F)ccc3F)ncc2S1(=O)=O | inactive |
| Cc1cccc(NC(=S)NC(=O)CCc2ccccc2)c1C | inconclusive [inhibitor, single point] |
| Cc1ccc(NC(=O)CCCn2nc(C)c3sc4ccccc4c3c2=O)c(Cl)c1 | inactive |
| COC(=O)c1ccccc1NC(=O)CSc1nnc2cc(C)c3cc(C)cc(C)c3n12 | inactive |
| CCC(C(=O)Nc1cccc(C#N)c1)n1nc(-c2ccccc2)ccc1=O (configuration not stated) | inactive |
| Fc1ccc(N2CCN(C(c3cccs3)c3nnnn3C3CCCC3)CC2)cc1 (configuration not stated) | inconclusive [inhibitor, single point] |
| COc1ccc(C(CNC(=O)c2ccc(-c3nc4ccccc4s3)o2)N2CCCC2)cc1 (configuration not stated) | inconclusive [inhibitor, single point] |
| Cc1ccc(CNc2ccc3c(c2)ncn3C)cc1 | inactive |
| Cc1cc(S(=O)(=O)Nc2ccc(C(=O)NCC3(N(C)C)CCCCC3)cc2)ccc1F | inconclusive [inhibitor, partial curve, poor fit] |
| CCCCC(=O)NC(=S)Nc1cc([N+](=O)[O-])ccc1OC | inactive |
| Cc1sc2ncnc(N3CCC(C(=O)Nc4ccc(Cl)cc4Cl)CC3)c2c1C | inconclusive [inhibitor, single point] |
| COc1ccc(C(=O)NCCNc2ncc(C(F)(F)F)cc2Cl)cc1[N+](=O)[O-] | inconclusive [inhibitor, partial curve, poor fit] |
| CC(NC(=O)Cn1cnnn1)C12CC3CC(CC(C3)C1)C2 (configuration not stated) | inactive |
| CCOC(=O)c1ccccc1NC(=O)C1COc2ccccc2O1 (configuration not stated) | inconclusive [inhibitor, partial curve, poor fit] |

| SMILES | Potency |
| --- | --- |
| C[C@H](NC(=O)c1[nH]cnc1C(=O)Nc1ccc(Cl)cc1)C(=O)OC(C)(C)C | inactive |
| Cc1cccc(C(=O)Nc2nnc(S(=O)(=O)N3CCCc4ccccc43)s2)c1 | inconclusive [inhibitor, single point] |
| Cn1c(=O)n(C)c2cc(NS(=O)(=O)c3ccc(C(C)(C)C)cc3)c(NCc3ccccc3)cc21 | inactive |
| Cc1ccc(C(=O)NCCN2CCN(C(=O)c3ccc(C)c(C)c3)CC2)cc1C | inactive |
| CCOc1ccc(N2C(=O)C3C(C2=O)C3(c2ccccc2)c2ccccc2)cc1 (configuration not stated) | inconclusive [inhibitor, partial curve] |
| Cc1ccc(NC(=O)Cn2cc(C(=O)C3CCCCC3)c3ccccc32)c(C)c1 | inconclusive [inhibitor, partial curve] |
| CCOC(=O)N1CCC(NC(=S)Nc2ccc3nc(N4CCN(C)CC4)cc(C)c3c2)CC1 | inconclusive [inhibitor, partial curve, poor fit] |
| Cc1cc(C)cc(NC(=O)c2cc(C)n(Cc3cccs3)c2C)c1 | inconclusive [inhibitor, partial curve, poor fit] |
| Cn1c2ccccc2c(=O)c2c(=O)n(Cc3ccco3)c(-c3ccc(F)cc3)nc21 | inconclusive [inhibitor, single point] |
| COc1ccc(CCC(=O)Nc2cccc(S(=O)(=O)N3CCCCCC3)c2)cc1 | inconclusive [inhibitor, partial curve, poor fit] |
| O=C(Nc1ccc2c(c1)OCO2)c1cc(-c2cccc(O)c2)on1 | inconclusive [inhibitor, full curve, poor fit] |
| CCS(=O)(=O)N1CCc2cc(C(=O)Nc3cc(OC)c(Cl)cc3OC)ccc21 | inactive |
| Cc1ccc(Nc2nc(C)c(NC(=O)c3ccc(C)cc3)c(Nc3ccc(C)cc3)n2)cc1 | inconclusive [inhibitor, single point] |
| Cc1ccc(S(=O)(=O)Nc2cccc(C(=O)NCC(c3ccco3)N3CCCC3)c2)cc1F (configuration not stated) | inconclusive [inhibitor, partial curve, poor fit] |
| COc1cc2c(cc1NC(=O)C(C)Sc1ccc(C)cc1)oc1ccccc12 (configuration not stated) | inconclusive [inhibitor, single point] |
| CCc1cccc(C)c1NC(=O)C(CC)Sc1nncn2c1cc1occc12 (configuration not stated) | inactive |
| COC(=O)C(NC(=O)c1ccc(C)cc1)(Nc1cccc(C)n1)C(F)(F)F (configuration not stated) | inconclusive [inhibitor, single point] |
| Cc1ccc(NC(=O)/C(=C/C=C/c2ccccc2)NC(=O)c2ccccc2)cc1 | inconclusive [inhibitor, full curve, poor fit] |
| CC1(C(=O)NS(=O)(=O)c2cccc(Cl)c2)CCN1C(=O)c1ccccc1CCc1ccccc1 (configuration not stated) | inconclusive [inhibitor, single point] |
| Cc1cc(=O)n(CC(=O)NC(C)c2ccccc2)c2c1c(C)nn2C (configuration not stated) | inactive |
| CN(C)c1cc[n+](CC(=O)Nc2ccc(OC(F)F)cc2)cc1 | inconclusive [inhibitor, single point] |
